Assay results taken from the supplement of paper PMC10338343.
± gives the standard deviation. This is a selection; strong and weak results do not stand in their true shares.

The sequences below were run on MIWI (PIWIL1) piRISC loaded with L1MC piRNA (30 nt) (assay: pre-steady-state target cleavage rate (min^-1); MIWI and MILI are mouse PIWI proteins and EfPiwi is from a freshwater sponge; tags in brackets are library labels; higher = faster piRNA-guided slicing of the target). Settings: guide: L1MC piRNA 5'p-UAACUAAAUACUAUGCAAGCUGUAGGUCCU; auxiliary factor: none (no GTSF1).
Outline: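 A transcribed, DNA-blocked target RNA library (0.1 nM) and 1 nM active affinity-purified piRISC bearing one synthetic guide were incubated in HEPES–potassium acetate buffer at 33 °C for 0–8 or 0–960 min, either with or without 500 nM GTSF1 partner protein. Uncleaved targets were sequenced, normalised to depth and to weakly complementary targets, and pooled over three trials, with k3 capped at 0.0001 min^-1. The pre-steady-state cleavage rate was derived with a burst-and-steady-state fit.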
With UCCUCCUACAGCUUGCAUAGUUUUUAGAAA the “pre-steady-state target cleavage rate” value was 0.00418 ± 0.0021. For AGGACCAUGAGCUUGCAUAGUAUUUAGUAA, the “pre-steady-state target cleavage rate” value was 0.0398 ± 0.0094. UCCUGGAUCACUUGCAUAGUAUUUAGUUA was tested, and the “pre-steady-state target cleavage rate” value was 0.00994 ± 0.0033. UCCUGGUACUGCUUGCAAAGUAUUUAGUUA was tested, and the “pre-steady-state target cleavage rate” value was 0.0221 ± 0.0052. UCCUGGAUCAGGUUGCAUAGUAUAUAGUUA was tested, and the “pre-steady-state target cleavage rate” value was 0.00568 ± 0.0023. In the case of UCCUGGAACAGCUUGGAUAGUAUUUAGAAA, the “pre-steady-state target cleavage rate” value is reported as 0.00668 ± 0.0027. With UCCUGGAUCAGCUAGCAUAGUAUUUUGUUA the “pre-steady-state target cleavage rate” value was 0.00702 ± 0.0024. For UCCUCCAACAGCUUGCAUAGUAUUUUGUUA, the “pre-steady-state target cleavage rate” value was 0.0236 ± 0.0035. For AGGUGCUACAGCUUGCAUAGUAUUUAGAAA, the “pre-steady-state target cleavage rate” value was 0.00465 ± 0.0018. With AGGACCUACAGCAUGCAUAGUAUUUACUUA the “pre-steady-state target cleavage rate” value was 0.0594 ± 0.011. For UCCUGGAUCAGCUUGCAUACUAUUUAGUUA, the “pre-steady-state target cleavage rate” value was 0.0356 ± 0.0087. UCCUGGUACAUGCUUGCAUAGUAUUUAGUUA was tested, and the “pre-steady-state target cleavage rate” value was 0.0479 ± 0.01. UCCUGGUACAGCUUGCUUACUAUUUAGUUA was tested, and the “pre-steady-state target cleavage rate” value was 0.0131 ± 0.004. For UCCUGCUUGAGCUUGCAUAGUAUUUACAAA, the “pre-steady-state target cleavage rate” value was 0.00374 ± 0.0022. In the case of UCCUGGAUCACCUUGCAUAGUAUUUACUUA, the “pre-steady-state target cleavage rate” value is reported as 0.0112 ± 0.0024. In the case of UCGAGGUACAGCUUGCAUAGUAUUUAGAAA, the “pre-steady-state target cleavage rate” value is reported as 0.00665 ± 0.0016. UCGAGCUACAGCUUGCAAAGUAUUUAGUUA was tested, and the “pre-steady-state target cleavage rate” value was 0.0367 ± 0.0083. In the case of UCCUGCUACAGCUUGCAUAGUAUUUAGCUUA, the “pre-steady-state target cleavage rate” value is reported as 0.0114 ± 0.0037. With UCCUGGUACAGCUUCCUUAGUAUUUAGUUA the “pre-steady-state target cleavage rate” value was 0.00407 ± 0.002. In the case of UCCUGGAUGAGCUUGCAAACUAUUUAGUUA, the “pre-steady-state target cleavage rate” value is reported as 0.00628 ± 0.0028. With UGGACCUACUCCUUGCAUAGUAUUUAGUAA the “pre-steady-state target cleavage rate” value was 0.0227 ± 0.0056. With UCCUGCUACAGCUUGCAUAGUAUUUUGUUA the “pre-steady-state target cleavage rate” value was 0.0348 ± 0.007. With UCCUCCUACAGCUAGCUUAGUAUUUAGUUA the “pre-steady-state target cleavage rate” value was 0.0068 ± 0.0019. AGGACCUACAGCUUGCAUAGUAUUUUGUAA was tested, and the “pre-steady-state target cleavage rate” value was 0.0627 ± 0.015. UCCUGGAUGAGCUUGCGUAGUAUUUAGUUA was tested, and the “pre-steady-state target cleavage rate” value was 0.0334 ± 0.01. For UCCUGGAUCGCUUGCAUAGUAUUUAGUUA, the “pre-steady-state target cleavage rate” value was 0.0131 ± 0.0045. For UCCUGGAUGAGCUUGCAUAGUAAUUAGUUA, the “pre-steady-state target cleavage rate” value was 0.0182 ± 0.0051. For UCCUCCUACAGCUUGCUUAGUAUUUAGAUA, the “pre-steady-state target cleavage rate” value was 0.00865 ± 0.0025. In the case of AGGACCUACUGCUUGCAUAGUAUUUAGAAA, the “pre-steady-state target cleavage rate” value is reported as 0.0229 ± 0.0055. For UGGACCUACAGCUUGCAUAGUCUUUAGUUA, the “pre-steady-state target cleavage rate” value was 0.0432 ± 0.011. In the case of AGGACCUAGAGCUUGCAUAGAAUUUAGUUA, the “pre-steady-state target cleavage rate” value is reported as 0.0169 ± 0.0061. UCCUGCUACAGCUUGCAUAGUAUUUAGUCUA was tested, and the “pre-steady-state target cleavage rate” value was 0.00747 ± 0.0028. UCCUGGAACAGCUUGCAUAGUCAUUUAGUUA was tested, and the “pre-steady-state target cleavage rate” value was 0.00564 ± 0.0024. UCCUGGAUCAGCUUGCAUAGUAUAAAGUUA was tested, and the “pre-steady-state target cleavage rate” value was 0.0131 ± 0.005. For UCCUCCUACAGCUUGCAUAGAAUUUAGUUA, the “pre-steady-state target cleavage rate” value was 0.0224 ± 0.0067. With UGGACCUACAGCUUGGAUAGUAUUUACAAA the “pre-steady-state target cleavage rate” value was 0.00372 ± 0.0023. In the case of UCCUGGUACAGCUUGCAUAGUAUUUAAUUA, the “pre-steady-state target cleavage rate” value is reported as 0.0179 ± 0.0047. With UCCUGGAACAGGUUGCAUAGUAAUUAGUUA the “pre-steady-state target cleavage rate” value was 0.0107 ± 0.003. UCCUGGAUCAGCUUGCAUAGUAUUAGUUA was tested, and the “pre-steady-state target cleavage rate” value was 0.00355 ± 0.003. For UCCUGGAACAGCUUGCAUAGUAUUUUCAUA, the “pre-steady-state target cleavage rate” value was 0.0038 ± 0.0023.
